The list shows a part of the results. The main result of the screen is listed elsewhere. These columns were measured beside it and carry no call. Compounds called inactive in the main read-out are mostly missing here.

The target of this test is Runt-related transcription factor 1 (Homo sapiens) + Core-binding factor subunit beta (Homo sapiens) (UniProt Q01196+Q13951). The experiment in a line: inhibitors of RUNX1 Runt–CBFb-SMMHC binding, primary screen, biochemical, FRET, Cerulean-Runt, Venus-CBFb-SMMHC, uHTS (AID 1434).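 Also: 0% = DMSO wells and 100% = wells with excess untagged CBFb-SMMHC; inhibitors lower the FRET ratio by blocking Runt binding to CBFb-SMMHC.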 As to conditions: Cerulean-Runt/Venus-CBFb-SMMHC FRET ratio 530/480, 1 h; retest duplicate average; at 20 µM; stronger effect = higher value.
Sequence of UniProt Q01196 (Q01196 whole entry, looked up): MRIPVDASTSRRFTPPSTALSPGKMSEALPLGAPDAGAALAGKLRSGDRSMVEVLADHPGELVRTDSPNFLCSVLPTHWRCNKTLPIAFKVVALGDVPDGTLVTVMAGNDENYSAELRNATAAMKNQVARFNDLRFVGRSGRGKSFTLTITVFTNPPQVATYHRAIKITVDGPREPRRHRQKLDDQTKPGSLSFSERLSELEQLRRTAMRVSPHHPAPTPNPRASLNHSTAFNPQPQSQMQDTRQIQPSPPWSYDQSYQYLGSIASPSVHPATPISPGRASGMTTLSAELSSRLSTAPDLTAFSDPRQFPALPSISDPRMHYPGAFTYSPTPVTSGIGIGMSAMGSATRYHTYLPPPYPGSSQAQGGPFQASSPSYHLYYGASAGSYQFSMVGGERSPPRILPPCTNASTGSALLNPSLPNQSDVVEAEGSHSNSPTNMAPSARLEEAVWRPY
Sequence of UniProt Q01196 (Q13951 whole entry, looked up): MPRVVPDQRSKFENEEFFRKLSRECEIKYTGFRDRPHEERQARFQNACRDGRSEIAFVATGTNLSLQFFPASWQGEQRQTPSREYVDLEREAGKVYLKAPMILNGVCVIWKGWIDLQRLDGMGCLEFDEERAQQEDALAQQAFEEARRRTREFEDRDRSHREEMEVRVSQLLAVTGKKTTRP
A word on the inhibition: it is the change of the read-out against control, counted positive when it falls. Consider `CCCCNC(=O)c1cc2c(=O)n3cccc(C)c3nc2n(Cc2ccccc2)c1=N`, for which the inhibition was 72.9%.

Consider `C=CCN(CC=C)c1nc2ccccc2nc1C(C#N)C(=O)OCCOC` (configuration not stated), for which the inhibition amounted to 50.2%.

Regarding `OCC(Cc1ccccc1)Nc1c2ccccc2nc2ccccc12` (configuration not stated), the inhibition is 71.5%.

Consider `Clc1ccc(-c2ccnc(-n3cccc3)n2)s1`, for which the inhibition is 72.8%.

On to `O=C(CCC(=O)N/N=C/c1cc(Cl)cc(Cl)c1O)NCc1ccccc1`, for which the inhibition was determined as 70.6%.

As to `CCOc1cc(-c2cc(-c3ccc(N)cc3)nc(N)c2C#N)ccc1O`, the inhibition is 94.4%.

With `CNc1oc(/C=C/c2ccccc2)nc1C#N`, the inhibition is 70.9%.

Turning to `Cc1cccn2c(=O)c3cc(C#N)c(=NC(=O)c4ccco4)n(Cc4ccco4)c3nc12`, the inhibition turned out to be 70.7%.

`CC(=O)c1sc2nc(-c3cccs3)ccc2c1N`: the inhibition came to 92.3%.

Take `CCCCN(CCCC)c1nc2ccccc2nc1NS(=O)(=O)c1ccc(NC(C)=O)cc1`: the inhibition came out at 111%.

As for `Nc1cccc2c1C(=O)N(C(=O)c1cccc(S(=O)(=O)N3CCCCCC3)c1)C2=O`, the inhibition came to 72.9%.

With `COc1cc(-c2nnc(SCc3cc(=O)oc4cc(O)c(O)cc34)o2)cc(OC)c1OC`, the inhibition was determined as 102%.

Take `Cc1cc2cc(C#N)c(NCCNC(=S)NCCCN3CCOCC3)nc2cc1C`: the inhibition was 102%.

On to `Nc1cccc2c1C(=O)N(C(=O)c1ccco1)C2=O`, for which the inhibition was 55.5%.

`COc1cc(OC)c(C2CC(=O)N3CN(c4ccccc4C)CSC3=C2C#N)cc1OC` (configuration not stated): the inhibition is 71.4%.

Turning to `CCCc1cc2c(OC(=O)CC)c(-c3ccc(C(=O)OCC)o3)c(=O)oc2cc1OC`, the inhibition was determined as 10.1%.

Take `CC(C)OCCCn1c(=NC(=O)c2cccs2)c(C#N)cc2c(=O)n3ccccc3nc21`: the inhibition is 70.6%.

With `Nc1cccc2c1C(=O)N(C(=O)/C=C/c1cccc(Br)c1)C2=O`, the inhibition is 64%.

For the compound `CN1CCc2c(sc(N)c2C(=O)O)C1`, the inhibition amounted to 146%.

As for `Cc1cc(-c2nc3cccnc3s2)ccc1NS(=O)(=O)c1cccs1`, the inhibition was determined as 166%.

In the case of `CC(=O)N=c1c(C#N)cc2c(=O)n3ccccc3nc2n1CCCOC(C)C`, the inhibition was determined as 70.6%.

Take `CCN(CC)c1cc(C)c(C#N)c2nc3ccccc3n12`: the inhibition amounted to 101%.

In the case of `Cc1ccc2c3c(cccc13)-c1ccccc1C2=O`, the inhibition worked out at 71.5%.

For `CCN(CC)c1ccc2ccc(=O)oc2c1`, the inhibition came to 70.6%.

As for `Cc1cccc(NC(=O)CSc2cc(C)c(C#N)c3nc4ccccc4n23)c1`, the inhibition was determined as 70.6%.

In the case of `CCN(CC)c1ccc2cc(C=O)c(=O)oc2c1`, the inhibition was found to be 72.9%.

`Cc1cccc2cc(C#N)c(NCCNS(=O)(=O)c3ccc4c(c3)OCCO4)nc12`: the inhibition turned out to be 91.2%.

Turning to `O=c1[nH]c2ccccc2nc1-c1cccs1`, the inhibition was 186%.

As for `CC1=CC(c2ccc(Cl)cc2)n2nc(NS(=O)(=O)c3ccc(C)cc3)nc2N1` (configuration not stated), the inhibition was 75.8%.

For `CCC(C)n1c(=N)c(C#N)cc2c(=O)n3ccccc3nc21` (configuration not stated), the inhibition is 71.5%.

Consider `Cc1ccc2sc3ccc(NC(=O)c4ccccc4Cl)cc3c(=O)c2c1`, for which the inhibition was 57.6%.

Turning to `O=c1oc2cc(O)ccc2cc1-c1nc2c(s1)CCc1ccccc1-2`, the inhibition came out at 71.5%.

For `Cc1ccc(Oc2nc3ccccn3c(=O)c2/C=C(\C#N)C(=O)NC2CCS(=O)(=O)C2)cc1` (configuration not stated), the inhibition was determined as 114%.

For the compound `N#C/C(=C\c1ccc(O)c(Br)c1)C(=O)NCc1ccccc1`, the inhibition was found to be 180%.

Turning to `COc1ccccc1C(=O)c1cc2ccc(O)cc2oc1=O`, the inhibition turned out to be 172%.

Turning to `Cc1c(Cc2ccccc2)c(=O)oc2cc(O)ccc12`, the inhibition was found to be 143%.

As to `CCNC(=O)C1=C(O)c2sccc2N(C)S1(=O)=O`, the inhibition stood at 74.7%.

With `CCc1c(C)c(C#N)c2nc3ccccc3n2c1Nc1c(C)n(C)n(-c2ccccc2)c1=O`, the inhibition was found to be 99%.

In the case of `COc1ccc2cc(C(C)=O)c(=O)oc2c1`, the inhibition turned out to be 61.9%.

For the compound `CC(=O)N(c1ccc2oc(=O)sc2c1)S(=O)(=O)c1cccs1`, the inhibition was 56.7%.

For `Cc1ccccc1S(=O)(=O)c1cc(C#N)c(=O)[nH]c1N`, the inhibition stood at 173%.

Consider `CCCCOC(=O)C(C#N)c1nc2ccccc2nc1N1CCN(Cc2ccc3c(c2)OCO3)CC1` (configuration not stated), for which the inhibition is 82.5%.

`O=C(O)c1ccc(N/N=C/c2ccc(-c3ccc(Cl)cc3Cl)o2)cc1`: the inhibition worked out at 70.7%.

For `N#Cc1c(NC(=O)CSc2ncc(-c3ccccc3)n2CC2CCCO2)sc2c1CCCC2` (configuration not stated), the inhibition is 86.1%.

As for `CC(C)n1c(=NC(=O)c2ccco2)c(C#N)cc2c(=O)n3ccccc3cc21`, the inhibition is 71.5%.

Regarding `O=C(O)C(=O)/C(=C\c1ccc(Cl)cc1)c1ccc2ccccc2n1`, the inhibition worked out at 125%.

As to `COc1ccc(N/C=C2/Sc3ccccc3NC2=O)cc1`, the inhibition was 51.4%.

Take `CCC(=O)NC1=C(Cl)C(=O)C(NC(=O)CC)=C(Cl)C1=O`: the inhibition was 68.3%.

In the case of `O=c1oc2c(CN3CCN(CCO)CC3)c(O)ccc2cc1-c1ccccn1`, the inhibition worked out at 70.6%.

For the compound `CCS(=O)(=O)Nc1ccc(-c2nc3cccnc3s2)cc1`, the inhibition turned out to be 92.1%.

With `CCCc1cc(=O)oc2c(CN3CCN(C)CC3)c(O)c(Cl)cc12`, the inhibition came out at 182%.

For `COc1ccc(N=Cc2cc3c(cc2O)OC(N)=C(C#N)C3c2ccccc2)cc1` (configuration not stated), the inhibition was found to be 52.8%.

Consider `Cc1nc(Cl)c2c(n1)NC1=C(O2)C(=O)CCC1`, for which the inhibition was determined as 71.5%.

With `COc1ccc(C2C=C(c3ccccc3)Nc3ncnn32)cc1` (configuration not stated), the inhibition was found to be 71.5%.

As for `Cc1c(C)c2cc(Cl)c(O)c(CN3CCCC(C)C3)c2oc1=O` (configuration not stated), the inhibition was found to be 142%.

`COc1ccccc1N1C(=O)C=C(Sc2nc(C)cc(C)n2)C1=O`: the inhibition is 60.2%.

As for `CCc1nnc(NC(=O)c2sc3nc4c(cc3c2N)CCCCCC4)s1`, the inhibition stood at 61.7%.

For `CC(=O)c1c(N2CCN(Cc3ccccc3)CC2)nc(=S)n(-c2ccccc2)c1C`, the inhibition was determined as 98.7%.

Consider `C/C(=N/NC(N)=S)c1cc2ccc(O)cc2oc1=O`, for which the inhibition came to 70.6%.

On to `C=CCOc1ccc(C2C(C#N)=C(N)N(Nc3ccccc3)C3=C2C(=O)CC(C)(C)C3)cc1OC` (configuration not stated), for which the inhibition was 133%.

Regarding `COc1ccc(OC)c(C2C3CN(C(C)C)CC=C3C(C#N)=C(N)C2(C#N)C#N)c1` (configuration not stated), the inhibition amounted to 80.4%.

With `O=C1NC(c2ccco2)Nc2sc3c(c21)CCN(Cc1ccccc1)C3` (configuration not stated), the inhibition stood at 72.9%.

For `N=c1c(C(=O)NCc2ccc(F)cc2)cc2c(=O)n3ccccc3nc2n1CC1CCCO1` (configuration not stated), the inhibition amounted to 72.9%.

With `N#Cc1c(N)n(-c2cccc(C(=O)O)c2)c2nc3ccccc3nc12`, the inhibition is 70.6%.

For the compound `COC(=O)c1c(N)n(CCCN2CCOCC2)c2nc3ccccc3nc12`, the inhibition stood at 109%.

Take `Cc1ccc2nc3c(cc2c1)c(NC(=O)C1CCCO1)nn3CC(C)C` (configuration not stated): the inhibition was 69.7%.

`CCNC(=O)/C(C#N)=C/c1c(N2CCN(Cc3ccc4c(c3)OCO4)CC2)nc2c(C)cccn2c1=O`: the inhibition was 103%.

With `Cc1cc(C)c2c(N)c3cccc(C)c3nc2n1`, the inhibition stood at 71.5%.

For `O=c1nc2n(Cc3ccccc3)c3ccccc3cc-2c(=O)[nH]1`, the inhibition was found to be 71.5%.

Regarding `COC(=O)C1=CN(CC2CCCO2)C=C(C(=O)OC)C1c1cccc(O)c1` (configuration not stated), the inhibition stood at 125%.

Take `O=Cc1ccc(O)c2ncccc12`: the inhibition is 70.8%.

In the case of `O=C(c1cccnc1)N(c1cc2sc(=O)oc2c2ccccc12)S(=O)(=O)c1ccccc1`, the inhibition is 42%.

In the case of `COC(=O)c1c(C#N)c(N)nc2c1CCC2`, the inhibition worked out at 132%.

`Cc1cccn2c(=O)c(/C=C(\C#N)C(=O)NCc3ccco3)c(N3CCC(C(N)=O)CC3)nc12`: the inhibition is 71.7%.

As to `CCOCCCn1c(=NC(=O)c2cccs2)c(C#N)cc2c(=O)n3cccc(C)c3nc21`, the inhibition came to 70.6%.

In the case of `CCC(C)n1c(=N)c(C#N)cc2c(=O)n3cccc(C)c3nc21` (configuration not stated), the inhibition was 70.6%.

As for `N=c1c(S(=O)(=O)c2ccccc2)cc2c(=O)n3ccccc3nc2n1CC1CCCO1` (configuration not stated), the inhibition was found to be 72.9%.

As for `CCOCCCn1c(=NC(C)=O)c(C#N)cc2c(=O)n3ccccc3nc21`, the inhibition was determined as 70.6%.

For the compound `O=C(CC1Sc2ccccc2NC1=O)OCc1cc(=O)oc2cc(O)ccc12` (configuration not stated), the inhibition is 101%.

Turning to `O=c1[nH]c(=O)c2ncc(-c3ccc(Cl)cc3)nc2[nH]1`, the inhibition was 85.1%.

On to `CCCCc1cc(=O)oc2c(CN3CCCC3)c(O)ccc12`, for which the inhibition was found to be 96.8%.

With `Cc1cc2c(c(=O)n1CCc1ccccc1)C(c1ccco1)C(C#N)=C(N)O2` (configuration not stated), the inhibition is 89.1%.

`N=c1oc2c3c4c(cc2cc1C(=O)Nc1ccccc1)CCCN4CCC3`: the inhibition was found to be 72.9%.

`CCCCNc1nc2sc3c(c2c(=O)n1-c1cccc(Cl)c1)CCN(C)C3`: the inhibition amounted to 162%.

Regarding `CCCCN(C)C1=CC2=CC(=C(C#N)C#N)CCC2CC1` (configuration not stated), the inhibition is 71.5%.

Consider `COc1cccc(-c2c3c([nH]c(=O)c2C#N)CCc2cc(OC)ccc2-3)c1`, for which the inhibition was 70.6%.

For the compound `C=CCn1c(-c2cccs2)nc2nc3ccccc3nc21`, the inhibition was found to be 136%.

For `O=C(Nc1nc2c(s1)CN(Cc1ccccc1)CC2)C1CCCC1`, the inhibition stood at 145%.

For `Cc1cccn2c(=O)c3cc(C(=O)NCc4cccnc4)c(=N)n(C(C)C)c3nc12`, the inhibition turned out to be 71.5%.

`Cc1cc(=O)oc2c(CN3CCCCC3)c(O)c(Cl)cc12`: the inhibition was 133%.

As to `N#C/C(=C\c1c(N2CCOCC2)nc2ccccn2c1=O)C(=O)NC1CCS(=O)(=O)C1` (configuration not stated), the inhibition was 70.6%.

`CCC(=O)NC(Nc1sc2c(c1C(=O)OC)CCN(C)C2)(C(F)(F)F)C(F)(F)F`: the inhibition was 53.3%.

Consider `CCN1CCN(Cc2c(O)ccc3c2O/C(=C\c2ccccc2)C3=O)CC1`, for which the inhibition was determined as 67.8%.

As to `CCOC(=O)c1c(NC(=S)Nc2ccccc2)sc2c1CCN(CC)C2`, the inhibition was found to be 135%.

Take `N=c1c(C(=O)NC2CCCC2)cc2c(=O)n3ccccc3nc2n1CCN1CCOCC1`: the inhibition came to 150%.

Take `CCOC(=O)c1sc(Nc2nc3c(OC)cccc3s2)nc1C`: the inhibition amounted to 144%.

On to `CCCn1c(=N)c(C#N)cc2c(=O)n3ccccc3nc21`, for which the inhibition amounted to 71.5%.

As to `CC(=O)Nc1ccc(C2=NN(c3ccccc3)C(c3cccs3)C2)cc1` (configuration not stated), the inhibition is 60.7%.

As for `Cc1cccn2c(=O)c(/C=C(\C#N)C(N)=O)c(Oc3ccccc3)nc12`, the inhibition came to 159%.

For the compound `CCc1c(C)c2cc(Cl)c(O)c(CN3CCCCC3)c2oc1=O`, the inhibition amounted to 163%.

`CCOCCCn1c(=NC(C)=O)c(C(=O)OCC)cc2c(=O)n3ccccc3nc21`: the inhibition was determined as 71.5%.

As for `CCCCn1c(-c2ccc(Cl)cc2)nc2c(=O)n(C)c(=O)[nH]c21`, the inhibition turned out to be 63.9%.

Turning to `Cc1ccc(CNC(=O)NCc2ccccc2)cc1`, the inhibition was -5%.

`CN(C)Cc1cc(O)c(CN(C)C)cc1O`: the inhibition came to 58.9%.

As to `Cc1ccc(S(=O)(=O)c2cc3c(=O)n4cccc(C)c4nc3n(Cc3ccco3)c2=N)cc1C`, the inhibition was 112%.

Regarding `COc1cccc(-c2nc(-c3ccc4c(c3)-c3ccccc3S4(=O)=O)c(-c3ccccc3)[nH]2)c1OC`, the inhibition was -46.7%.

On to `COc1ccc(CCNC(=O)c2cc3c(=O)n4cccc(C)c4nc3n(Cc3ccncc3)c2=N)cc1`, for which the inhibition amounted to 180%.

The record behind these values is PubChem BioAssay AID1434 (Sanford-Burnham Center for Chemical Genomics, 2008).
